Consider twelve molecules from article PMC4695013.

The chains behind the UniProt entries cited, without tags or fusion partners.
UniProt Q8K4B0: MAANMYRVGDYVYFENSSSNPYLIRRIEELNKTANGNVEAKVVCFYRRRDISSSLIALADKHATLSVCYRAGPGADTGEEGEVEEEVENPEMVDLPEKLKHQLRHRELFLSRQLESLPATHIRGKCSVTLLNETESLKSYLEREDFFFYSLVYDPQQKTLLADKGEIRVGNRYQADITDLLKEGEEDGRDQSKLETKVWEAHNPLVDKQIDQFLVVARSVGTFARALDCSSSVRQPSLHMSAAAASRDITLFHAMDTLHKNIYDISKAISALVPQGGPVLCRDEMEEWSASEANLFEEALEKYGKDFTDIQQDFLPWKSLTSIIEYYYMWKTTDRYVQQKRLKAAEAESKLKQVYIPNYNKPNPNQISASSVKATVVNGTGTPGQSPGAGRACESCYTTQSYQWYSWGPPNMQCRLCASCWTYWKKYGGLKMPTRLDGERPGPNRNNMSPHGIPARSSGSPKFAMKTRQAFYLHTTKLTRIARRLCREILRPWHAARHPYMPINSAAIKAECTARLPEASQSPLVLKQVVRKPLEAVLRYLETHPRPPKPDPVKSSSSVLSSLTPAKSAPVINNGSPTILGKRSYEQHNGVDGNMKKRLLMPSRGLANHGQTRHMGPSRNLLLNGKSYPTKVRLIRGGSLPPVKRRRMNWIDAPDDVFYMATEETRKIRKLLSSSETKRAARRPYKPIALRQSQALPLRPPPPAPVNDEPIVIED
UniProt P09874: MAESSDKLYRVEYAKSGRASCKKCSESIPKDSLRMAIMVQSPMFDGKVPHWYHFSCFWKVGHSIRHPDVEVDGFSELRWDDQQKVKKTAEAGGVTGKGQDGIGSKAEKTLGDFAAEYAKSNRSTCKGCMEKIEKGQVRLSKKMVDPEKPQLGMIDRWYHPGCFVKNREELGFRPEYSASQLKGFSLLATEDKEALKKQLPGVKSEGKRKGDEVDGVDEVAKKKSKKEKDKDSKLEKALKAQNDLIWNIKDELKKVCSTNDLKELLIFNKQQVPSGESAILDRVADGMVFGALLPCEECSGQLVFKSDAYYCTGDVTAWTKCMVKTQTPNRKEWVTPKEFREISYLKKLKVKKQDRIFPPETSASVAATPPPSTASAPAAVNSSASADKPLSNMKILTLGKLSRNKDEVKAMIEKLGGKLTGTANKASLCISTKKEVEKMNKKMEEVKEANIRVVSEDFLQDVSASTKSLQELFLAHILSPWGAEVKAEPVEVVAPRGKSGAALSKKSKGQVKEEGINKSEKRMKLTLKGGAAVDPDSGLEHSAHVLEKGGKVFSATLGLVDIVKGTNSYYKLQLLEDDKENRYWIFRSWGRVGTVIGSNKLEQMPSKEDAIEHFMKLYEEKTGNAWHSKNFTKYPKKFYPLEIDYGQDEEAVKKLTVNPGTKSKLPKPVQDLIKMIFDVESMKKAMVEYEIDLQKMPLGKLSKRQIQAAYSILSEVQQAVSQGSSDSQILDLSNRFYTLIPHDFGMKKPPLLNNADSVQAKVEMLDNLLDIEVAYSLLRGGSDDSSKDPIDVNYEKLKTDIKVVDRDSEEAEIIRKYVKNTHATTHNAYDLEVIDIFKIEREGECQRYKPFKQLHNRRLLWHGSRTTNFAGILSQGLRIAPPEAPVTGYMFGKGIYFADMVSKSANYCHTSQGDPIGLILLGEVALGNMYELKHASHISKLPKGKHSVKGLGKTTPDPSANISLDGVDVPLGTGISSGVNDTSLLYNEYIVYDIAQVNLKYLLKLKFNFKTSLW
UniProt P12956: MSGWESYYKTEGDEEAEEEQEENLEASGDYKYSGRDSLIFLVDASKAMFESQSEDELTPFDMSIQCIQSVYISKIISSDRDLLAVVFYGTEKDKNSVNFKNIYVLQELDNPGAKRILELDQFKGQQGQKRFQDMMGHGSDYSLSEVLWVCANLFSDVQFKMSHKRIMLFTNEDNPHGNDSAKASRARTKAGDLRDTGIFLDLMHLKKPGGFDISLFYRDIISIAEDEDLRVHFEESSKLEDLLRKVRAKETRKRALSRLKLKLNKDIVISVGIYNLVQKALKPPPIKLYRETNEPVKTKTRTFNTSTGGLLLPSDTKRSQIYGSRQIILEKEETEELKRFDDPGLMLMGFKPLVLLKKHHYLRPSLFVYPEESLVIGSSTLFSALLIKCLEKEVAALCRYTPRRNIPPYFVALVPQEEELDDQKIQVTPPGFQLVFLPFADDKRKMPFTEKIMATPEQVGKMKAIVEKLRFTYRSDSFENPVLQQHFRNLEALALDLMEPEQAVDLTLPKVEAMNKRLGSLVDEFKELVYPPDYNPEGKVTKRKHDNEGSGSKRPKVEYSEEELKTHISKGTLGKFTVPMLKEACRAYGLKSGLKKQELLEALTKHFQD
UniProt Q92769: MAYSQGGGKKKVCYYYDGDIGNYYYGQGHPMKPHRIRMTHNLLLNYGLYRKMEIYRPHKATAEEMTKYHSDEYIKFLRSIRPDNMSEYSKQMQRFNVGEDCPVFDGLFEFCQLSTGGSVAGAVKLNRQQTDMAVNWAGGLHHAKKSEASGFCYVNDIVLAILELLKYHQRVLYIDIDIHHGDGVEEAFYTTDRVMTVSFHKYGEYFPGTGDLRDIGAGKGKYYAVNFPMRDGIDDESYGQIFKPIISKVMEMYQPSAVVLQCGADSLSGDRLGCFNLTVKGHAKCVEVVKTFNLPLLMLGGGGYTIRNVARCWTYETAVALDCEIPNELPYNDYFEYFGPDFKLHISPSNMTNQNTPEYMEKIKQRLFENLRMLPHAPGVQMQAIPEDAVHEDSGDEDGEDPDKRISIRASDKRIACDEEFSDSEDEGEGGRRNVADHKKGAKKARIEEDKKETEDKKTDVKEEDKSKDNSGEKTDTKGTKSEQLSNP
UniProt Q8TDI0: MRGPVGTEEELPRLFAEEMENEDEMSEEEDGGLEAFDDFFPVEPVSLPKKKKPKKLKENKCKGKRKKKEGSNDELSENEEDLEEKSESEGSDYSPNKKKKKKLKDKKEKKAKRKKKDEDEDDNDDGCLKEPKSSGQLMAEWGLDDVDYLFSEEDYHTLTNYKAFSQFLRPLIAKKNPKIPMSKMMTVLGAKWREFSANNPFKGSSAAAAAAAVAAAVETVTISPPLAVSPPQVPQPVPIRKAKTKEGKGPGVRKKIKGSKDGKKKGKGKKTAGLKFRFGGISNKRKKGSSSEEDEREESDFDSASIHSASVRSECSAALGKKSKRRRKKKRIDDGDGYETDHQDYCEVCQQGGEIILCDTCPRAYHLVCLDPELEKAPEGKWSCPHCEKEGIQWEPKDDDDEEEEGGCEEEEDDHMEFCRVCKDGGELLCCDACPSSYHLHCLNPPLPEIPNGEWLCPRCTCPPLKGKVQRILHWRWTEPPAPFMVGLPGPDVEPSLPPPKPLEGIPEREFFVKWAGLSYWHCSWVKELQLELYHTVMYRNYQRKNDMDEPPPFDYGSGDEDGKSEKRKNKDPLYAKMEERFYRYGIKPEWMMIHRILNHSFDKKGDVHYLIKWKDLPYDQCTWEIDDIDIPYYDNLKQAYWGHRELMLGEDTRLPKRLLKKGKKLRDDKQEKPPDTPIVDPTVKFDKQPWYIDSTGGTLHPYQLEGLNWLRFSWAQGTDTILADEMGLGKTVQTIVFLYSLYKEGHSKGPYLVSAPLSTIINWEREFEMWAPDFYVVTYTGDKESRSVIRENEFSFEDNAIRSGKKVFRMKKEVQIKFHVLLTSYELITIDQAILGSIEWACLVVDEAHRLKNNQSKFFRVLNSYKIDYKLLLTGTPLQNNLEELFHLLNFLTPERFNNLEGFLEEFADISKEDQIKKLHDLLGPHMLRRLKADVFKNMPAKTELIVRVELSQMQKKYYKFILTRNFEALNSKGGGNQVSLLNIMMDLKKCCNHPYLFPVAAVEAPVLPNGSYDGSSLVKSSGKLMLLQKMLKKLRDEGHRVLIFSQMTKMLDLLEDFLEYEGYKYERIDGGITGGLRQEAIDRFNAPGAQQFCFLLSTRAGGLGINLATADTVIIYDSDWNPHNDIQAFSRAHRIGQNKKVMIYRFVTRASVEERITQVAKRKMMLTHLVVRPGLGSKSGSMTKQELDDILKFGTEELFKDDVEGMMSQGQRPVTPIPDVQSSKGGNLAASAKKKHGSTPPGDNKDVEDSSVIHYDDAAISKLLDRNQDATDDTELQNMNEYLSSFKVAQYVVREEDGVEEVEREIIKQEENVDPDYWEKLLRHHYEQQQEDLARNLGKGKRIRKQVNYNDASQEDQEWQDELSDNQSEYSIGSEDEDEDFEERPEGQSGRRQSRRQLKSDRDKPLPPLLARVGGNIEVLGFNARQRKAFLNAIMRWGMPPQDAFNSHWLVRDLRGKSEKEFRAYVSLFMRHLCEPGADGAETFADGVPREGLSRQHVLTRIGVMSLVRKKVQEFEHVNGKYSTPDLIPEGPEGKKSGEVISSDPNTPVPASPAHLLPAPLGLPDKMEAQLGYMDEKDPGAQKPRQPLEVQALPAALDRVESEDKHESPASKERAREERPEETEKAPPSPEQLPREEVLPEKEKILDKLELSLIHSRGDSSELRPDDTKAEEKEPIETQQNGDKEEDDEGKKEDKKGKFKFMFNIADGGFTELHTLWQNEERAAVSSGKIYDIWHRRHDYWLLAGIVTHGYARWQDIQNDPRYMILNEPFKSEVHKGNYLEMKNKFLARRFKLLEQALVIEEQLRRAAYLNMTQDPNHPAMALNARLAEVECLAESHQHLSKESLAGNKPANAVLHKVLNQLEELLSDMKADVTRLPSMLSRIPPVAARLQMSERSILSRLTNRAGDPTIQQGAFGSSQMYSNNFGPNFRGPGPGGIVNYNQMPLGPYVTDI
UniProt Q13547: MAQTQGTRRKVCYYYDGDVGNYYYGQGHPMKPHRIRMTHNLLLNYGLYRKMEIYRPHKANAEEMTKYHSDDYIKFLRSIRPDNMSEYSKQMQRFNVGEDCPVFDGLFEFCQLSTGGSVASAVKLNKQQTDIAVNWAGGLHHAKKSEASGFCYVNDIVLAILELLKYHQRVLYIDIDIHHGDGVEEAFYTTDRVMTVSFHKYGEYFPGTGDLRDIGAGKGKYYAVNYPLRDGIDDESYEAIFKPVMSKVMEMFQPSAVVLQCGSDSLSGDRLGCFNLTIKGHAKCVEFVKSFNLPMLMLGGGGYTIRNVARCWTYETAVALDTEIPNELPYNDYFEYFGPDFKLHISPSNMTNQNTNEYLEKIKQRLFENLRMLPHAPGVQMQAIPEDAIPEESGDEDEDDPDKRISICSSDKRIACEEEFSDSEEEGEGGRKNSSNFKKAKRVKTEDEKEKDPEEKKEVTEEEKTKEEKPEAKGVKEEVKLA
UniProt Q8WXI9: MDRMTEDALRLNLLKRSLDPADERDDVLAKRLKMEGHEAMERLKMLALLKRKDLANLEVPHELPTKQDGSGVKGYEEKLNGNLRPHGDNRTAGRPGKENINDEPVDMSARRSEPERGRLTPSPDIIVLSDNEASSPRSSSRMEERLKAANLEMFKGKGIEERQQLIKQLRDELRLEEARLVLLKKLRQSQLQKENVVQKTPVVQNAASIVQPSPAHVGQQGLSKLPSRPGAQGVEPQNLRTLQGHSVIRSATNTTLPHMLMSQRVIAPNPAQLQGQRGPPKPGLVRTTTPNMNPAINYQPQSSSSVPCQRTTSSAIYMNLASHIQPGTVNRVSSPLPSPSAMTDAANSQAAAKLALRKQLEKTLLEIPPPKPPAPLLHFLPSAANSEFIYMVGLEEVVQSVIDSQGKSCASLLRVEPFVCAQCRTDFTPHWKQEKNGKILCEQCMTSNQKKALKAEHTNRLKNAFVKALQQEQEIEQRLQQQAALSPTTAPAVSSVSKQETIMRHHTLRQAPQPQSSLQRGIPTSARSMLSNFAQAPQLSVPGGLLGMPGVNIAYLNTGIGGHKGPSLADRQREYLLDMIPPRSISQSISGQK
UniProt P27694: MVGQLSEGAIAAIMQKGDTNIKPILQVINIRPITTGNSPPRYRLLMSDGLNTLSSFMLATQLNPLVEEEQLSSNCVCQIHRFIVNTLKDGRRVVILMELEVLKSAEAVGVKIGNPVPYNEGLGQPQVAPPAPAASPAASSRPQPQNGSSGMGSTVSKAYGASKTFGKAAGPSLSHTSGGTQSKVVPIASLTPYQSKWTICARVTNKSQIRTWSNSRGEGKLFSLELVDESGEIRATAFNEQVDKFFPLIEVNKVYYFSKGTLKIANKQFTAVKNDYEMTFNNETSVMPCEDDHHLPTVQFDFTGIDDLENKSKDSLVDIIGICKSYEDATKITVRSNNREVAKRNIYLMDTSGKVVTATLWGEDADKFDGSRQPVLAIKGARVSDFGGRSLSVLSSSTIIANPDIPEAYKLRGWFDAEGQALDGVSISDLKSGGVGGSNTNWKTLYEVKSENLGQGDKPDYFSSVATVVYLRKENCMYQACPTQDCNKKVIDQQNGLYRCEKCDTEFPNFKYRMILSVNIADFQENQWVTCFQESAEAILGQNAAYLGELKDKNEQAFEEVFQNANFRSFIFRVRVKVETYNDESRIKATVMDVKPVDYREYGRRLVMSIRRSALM

One assay concerns the target T1, 1xFLAG-CASZ1b (human) (UniProt Q86V15).
T1 sequence: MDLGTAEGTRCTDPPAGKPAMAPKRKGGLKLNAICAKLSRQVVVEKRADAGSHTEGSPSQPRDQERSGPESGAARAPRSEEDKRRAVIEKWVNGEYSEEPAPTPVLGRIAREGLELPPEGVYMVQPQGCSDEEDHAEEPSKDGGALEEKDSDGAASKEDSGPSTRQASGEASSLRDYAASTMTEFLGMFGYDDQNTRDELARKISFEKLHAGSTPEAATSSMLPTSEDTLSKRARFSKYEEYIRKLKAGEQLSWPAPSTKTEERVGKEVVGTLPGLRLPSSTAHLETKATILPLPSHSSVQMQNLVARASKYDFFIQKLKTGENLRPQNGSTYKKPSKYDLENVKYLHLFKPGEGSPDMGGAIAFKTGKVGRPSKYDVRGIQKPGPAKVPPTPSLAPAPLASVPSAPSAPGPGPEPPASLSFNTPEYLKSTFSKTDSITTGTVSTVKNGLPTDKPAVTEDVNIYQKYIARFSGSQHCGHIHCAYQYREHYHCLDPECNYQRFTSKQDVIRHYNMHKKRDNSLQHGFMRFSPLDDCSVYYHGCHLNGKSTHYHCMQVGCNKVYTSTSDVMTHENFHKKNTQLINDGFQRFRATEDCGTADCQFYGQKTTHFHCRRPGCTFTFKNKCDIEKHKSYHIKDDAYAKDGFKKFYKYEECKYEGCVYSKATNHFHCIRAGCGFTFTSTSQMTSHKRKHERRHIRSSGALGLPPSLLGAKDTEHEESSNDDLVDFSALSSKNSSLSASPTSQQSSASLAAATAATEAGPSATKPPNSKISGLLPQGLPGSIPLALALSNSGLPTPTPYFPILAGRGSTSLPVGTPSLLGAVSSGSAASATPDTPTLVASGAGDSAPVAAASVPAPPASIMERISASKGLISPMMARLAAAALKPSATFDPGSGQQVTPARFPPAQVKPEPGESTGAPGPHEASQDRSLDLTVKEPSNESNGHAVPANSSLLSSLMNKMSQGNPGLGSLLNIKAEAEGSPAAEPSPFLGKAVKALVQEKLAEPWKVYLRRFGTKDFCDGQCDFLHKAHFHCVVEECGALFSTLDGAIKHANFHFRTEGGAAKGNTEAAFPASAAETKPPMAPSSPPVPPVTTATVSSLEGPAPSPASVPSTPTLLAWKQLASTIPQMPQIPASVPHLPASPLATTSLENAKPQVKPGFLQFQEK
The assay can be described thus: co-IP; HEK293T transiently transfected with 1xFLAG-CASZ1b, its mutants or empty vector; whole cell extract (200 mM NaCl, 1% Triton X-100, benzonase), ANTI-FLAG M2 magnetic beads 4 hr at 4°C, western blot; in Figure 6B with or without PARP inhibitor AZD2281 (50 μM, 24 hr). For orientation: Immunoblotting shows a protein as a band on a membrane.

Assay [1] concerns the target FLAG-CASZ1a (SY5Y-FLAG-CASZ1a) (human) (UniProt Q86V15). The assay can be described thus: co-IP; SY5Y cells stably transfected with tetracycline inducible FLAG-CASZ1b or FLAG-CASZ1a, with or without 1 μg/μl tetracycline for 24 hr; anti-FLAG co-IP, western blot.
Assay [2] addresses PARP1 (mouse ES cells) (mouse (endogenous in mES cells)) (UniProt P11103). The assay can be described thus: co-IP; endogenous proteins, mouse ES cell extract; anti-MTA1 or anti-PARP1 antibody on Dynabeads, blot probed with anti-CASZ1.
Assay [3] deals with MTA1 (mouse ES cells) (mouse (endogenous in mES cells)) (UniProt Q8K4B0). The description is as above.
Assay [4] addresses PARP1 (HEK293T) (human (endogenous in HEK293T)) (UniProt P09874). The assay can be described thus: co-IP; endogenous proteins, HEK293T whole cell extract; anti-MTA1 or anti-PARP1 antibody on Dynabeads, blot probed with anti-CASZ1.
Assay [5] concerns the target MTA1 (HEK293T) (human (endogenous in HEK293T)) (UniProt Q13330). The description is as above.
Assay [6] deals with PARP1 (HEK293T) (human (endogenous in HEK293T)) (UniProt P09874). The assay can be described thus: co-IP; HEK293T transfected with FLAG-CASZ1b or empty vector, with or without PARP inhibitor AZD2281 (50 μM, 24 hr); co-IP with anti-PARP1 antibody, blot probed for CASZ1b.

These are yes or no findings as the source states them, for the method shown. In cells and extracts the contact can be indirect. Some binding calls cover weakened binding; strength is not graded here. For some assays here: Where a sequence is shown, tags or fusion partners need not be part of it.

Regarding “XRCC6 (HEK293T) (from UniProt P12956 1-609)”, in the assay with 1xFLAG-CASZ1b (human), the binding entry was “binds”. With “XRCC5 (SY5Y) (from UniProt P13010 1-732)”, in assay [1], the binding entry is recorded as “binds”. In the case of “XRCC5 (HEK293T) (from UniProt P13010 1-732)”, the binding entry with 1xFLAG-CASZ1b (human) is reported as “binds”. Still for that read-out and setting: the value for “HDAC2 (HEK293T) (from UniProt Q92769 1-488)” was “binds”.

In the case of “CHD5 (SY5Y) (from UniProt Q8TDI0 1-1954)”, the binding entry in assay [1] is reported as “binds”.

With “PARP1 (HEK293T) (from UniProt P09874 1-1014)”, the binding entry with 1xFLAG-CASZ1b (human) is listed as “binds”. Take “endogenous CASZ1 (mouse ES cells) (from UniProt Q9CWL2 1-1761)”: the binding result in assay [2] and in assay [3] was “binds” in each case. For the molecule “endogenous CASZ1 (HEK293T) (from UniProt Q86V15 1-1759)”, the binding result in assay [4] and in assay [5] was “binds” throughout.

On to “HDAC1 (HEK293T) (from UniProt Q13547 1-482)”, for which, in the assay with 1xFLAG-CASZ1b (human), the binding result is recorded as “binds”. As for “Gatad2b (HEK293T) (from UniProt Q8WXI9 1-593)”, the binding entry with 1xFLAG-CASZ1b (human) is “binds”. Same read-out and setting: the entry for “RPA1 (HEK293T) (from UniProt P27694 1-616)” is “binds”.

B1: 1xFLAG-CASZ1b (protein, UniProt Q86V15-2 1-1166)
chain: T1 sequence
For the molecule B1, the binding result in assay [6] is “binds”.
